Assay results from PubChem BioAssay AID686978 (National Center for Advancing Translational Sciences (NCATS), 2013).
Several values for one entry are separate records, joined by “and”; a condition that tells them apart may be missing. Equal entries are not always repeated. Screen size: about 420,000 compounds; about 64,000 (15%) were called active. This list was built around the results that the source calls inconclusive (neither active nor inactive); the mix of calls is not that of the screen. Calls come from the whole dose curve; as a rule, active = well fitted inhibition curve with a large enough effect; inconclusive = small, poorly fitted or top-dose-only effect; inactive = flat fitted curve, though single readings scatter. Potencies of inconclusive entries are doubtful fits and often do not repeat.
% is set by controls: 0 for no effect and ±100 for the full control effect; potency is the fitted concentration of half-maximal effect; tags give direction and shape of the fitted curve.

Assay: qHTS for Inhibitors of human tyrosyl-DNA phosphodiesterase 1 (TDP1): qHTS in cells in absence of CPT; note: nearly all actives have a fitted effect of over 55% in size
Conditions: DT40 Tdp1-/- hTDP1 cells, no CPT, ATP luminescence, 48 h; activity change, negative = growth inhibition: at 46.2 µM (top of the series) unless noted
Outline: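 Readout: luminescence from CellTiter-Glo after 30 min in the dark at RT. Cells: DT40 Tdp1-/- with stable hTDP1, 400/well. Exposure: compounds alone, ≥48 hr, 37 °C.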
In the case of CC(C)=CCc1c2c(c(O)c3c(=O)c4c(oc13)-c1cc(O)c(O)cc1OC4C=C(C)C)C=CC(C)(C)O2 (stereo not given), the Potency is reported as inconclusive: 29.1 µM [inhibitor, single point]. With O=C(COc1ccc(Cl)cc1)Nc1cc2c3c(c1)CC(=O)N3CCC2 the Potency was active: 20.6 µM. With O=C(NCc1ccc(Cl)cc1)C1CCCN(c2cnccn2)C1 (stereo not given) the Potency was inconclusive: 18.4 µM [inhibitor, partial curve]. With CCn1c(=N)n(CC(O)c2cccs2)c2ccccc21 (stereo not given) the Potency was inconclusive: 18.4 µM [inhibitor, single point]. With Cc1ccc(N2C(N)=C(C#N)C(c3ccsc3)C3=C2CC(C)(C)CC3=O)cc1 (stereo not given) the Potency was inconclusive: 23.1 µM [inhibitor, single point]. In the case of CNC(=S)/N=C(/Nc1ccccc1)c1ccccc1, the Potency is reported as “inactive”. For COc1cccc(NS(=O)(=O)c2ccc3[nH]cc(C(=O)NCCc4ccccc4)c(=O)c3c2)c1, the Potency was inconclusive: 11.6 µM [inhibitor, partial curve]. In the case of CCOc1ccc(CCNCc2c(C(=O)O)n(Cc3ccc(C)cc3)c3cc(OC)ccc23)cc1, the Potency is reported as active: 18.4 µM. In the case of O=C(/C=C/c1ccccc1)NCCS(=O)(=O)N1CCN(c2ccccc2F)CC1, the Potency is reported as inconclusive: 20.6 µM [inhibitor, single point]. With CSc1ccc(NC(=O)N2CCN(c3nc4ccccc4s3)CC2)cc1 the Potency was inconclusive: 13 µM [inhibitor, partial curve]. With COc1cc(OC)c2c(OC)c(-c3ccc4c(c3)OCO4)c(=O)oc2c1 the Potency was “inactive”. With CCCc1nc2nc(C)c(NS(=O)(=O)c3ccc(C4CCCCC4)cc3)c(=O)n2[nH]1 the Potency was “inactive”. In the case of CCN(c1ccccc1)S(=O)(=O)c1ccc(Cl)c(NC(=O)COC(=O)c2ccc[nH]c2=O)c1, the Potency is reported as “inactive”. For Cc1cc(C(=O)COC(=O)c2ccc(Cl)c(S(N)(=O)=O)c2)c(C)n1C1CC1, the Potency was inconclusive: 29.1 µM [inhibitor, single point]. With C=CCn1cc(/C=N/Nc2nc3ccccc3[nH]2)c2ccccc21 the Potency was inconclusive: 23.1 µM [inhibitor, single point]. In the case of Cc1nnc(N/N=C\c2ccc(-c3ccccc3[N+](=O)[O-])o2)n1N, the Potency is reported as inconclusive: 29.1 µM [inhibitor, single point]. In the case of Cc1ccc(-c2nnc(-c3cccnc3)o2)cc1, the Potency is reported as “inactive”. In the case of COc1cccc(N2C(=O)N(Cc3ccc(C#N)cc3)c3ccccc3S2(=O)=O)c1, the Potency is reported as “inactive”. For C[C@H]1CCC(=O)N([C@H](CC#N)Cc2ccccc2)CC1, the Potency was “inactive”. For Cc1cc(CNC(=O)COc2ccccc2F)c2ccccc2n1, the Potency was inconclusive: 9.2 µM [inhibitor, partial curve]. For O=c1[nH]cc(COCC(F)CCl)c(=O)[nH]1 (stereo not given), the Potency was “inactive”. In the case of Cc1cc(C)cc(NC(=O)Nc2ccc3c(c2)N(C)C(=O)CS3)c1, the Potency is reported as inconclusive: 29.1 µM [inhibitor, single point]. With CCn1cc(C(=O)NCCCN(CC(C)C)CC(C)C)c(=O)c2cc(S(=O)(=O)N(C)C3CCCCC3)ccc21 the Potency was inconclusive: 29.1 µM [inhibitor, single point] and inconclusive: 23.1 µM [inhibitor, single point]. For CC1(NC(=O)c2cccc(S(=O)(=O)N3CCN(c4ccc(F)cc4)CC3)c2)CCS(=O)(=O)C1 (stereo not given), the Potency was inconclusive: 25.9 µM [inhibitor, single point]. With Cc1c(CNC2CCCC(C)C2C)c(C(=O)O)c(C)n1Cc1ccccc1 (stereo not given) the Potency was inconclusive: 18.4 µM [inhibitor, single point]. In the case of CCc1ccccc1NC(=O)Cn1c(=O)n(CC2CCC(C(=O)NCCc3ccccc3)CC2)c(=O)c2ccccc21 (stereo not given), the Potency is reported as inconclusive: 29.1 µM [inhibitor, single point]. For COc1ccc(NC(=O)N(C)C[C@H]2Oc3c(NC(=O)Nc4ccc(C(F)(F)F)cc4)cccc3C(=O)N([C@H](C)CO)C[C@@H]2C)cc1, the Potency was active: 13 µM. With Cc1ccccc1C(C)NS(=O)(=O)c1ccc2c(c1)OCCO2 (stereo not given) the Potency was inconclusive: 18.4 µM [inhibitor, single point]. For O=S(=O)(c1ccccc1F)N1CCC(Oc2ccc(-n3cnnn3)cc2)CC1, the Potency was active: 23.1 µM. With COc1cccc(OC)c1C(=O)NC(C)C12CC3CC(CC(C3)C1)C2 (stereo not given) the activity change, negative = growth inhibition was inconclusive: -35.8% [inhibitor]. With CCOc1cc(C2C3=C(CCCC3=O)Nc3nc(C(=O)OC)nn32)ccc1OC (stereo not given) the Potency was “inactive”. For COCC(C)NC(=O)c1ccc(-n2nc(C(F)(F)F)cc2-c2cccs2)cc1 (stereo not given), the Potency was inconclusive: 20.6 µM [inhibitor, single point]. With COC(=O)c1ccc(OCC(=O)NCCC2=CCCCC2)c(OC)c1 the Potency was active: 23.1 µM. For Cc1cc(C)c[n+](-c2[nH]c(=O)sc2/C=N/N=C(\[O-])c2cccnc2)c1, the Potency was “inactive”. With CCCC(=O)N=C1SC2CS(=O)(=O)CC2N1c1ccc(-c2nc3ccc(C)cc3s2)cc1 (stereo not given) the Potency was inconclusive: 23.1 µM [inhibitor, single point]. For CCC1=C(OC(=O)N(CC)CC)N2C(=O)OC(=NCCc3c[nH]c4ccccc34)[C@]2(Cc2ccccc2)[C@H]2C1=CC[C@H]1C(=O)NC(=O)[C@H]12, the Potency was active: 16.4 µM. For COc1ccc(S(=O)(=O)N2CCC(C(N)=O)CC2)cc1C(=O)N1CCCCCC1, the Potency was “inactive”. In the case of O=C1NC[C@@H](CCCCN2CCN(CCC3CCCCC3)C(=O)C2=O)N(Cc2ccccc2)C1=O, the Potency is reported as “inactive”. For CSCC[C@H](N)C(=O)N1CCC(C(=O)N[C@@H](C)C(=O)NCc2ccc(F)cc2)CC1, the Potency was “inactive”. For O=C(OC1CCOC1=O)c1ccc(CO)cc1 (stereo not given), the Potency was “inactive”. With CCOC(=O)C1(Cc2ccc(OC)cc2)CCN(C(=O)CCc2cccnc2)CC1 the Potency was inconclusive: 25.9 µM [inhibitor, single point]. For O=C(NC(c1ccc(F)cc1)c1ccc2ccccc2n1)C1CCN(CCOc2ccc(Cl)cc2)CC1 (stereo not given), the Potency was active: 20.6 µM. For CCn1c(SCC(=O)Nc2ccc(OC)cc2)nc2nc3c(cc2c1=O)COC(C)(C)C3, the Potency was inconclusive: 18.4 µM [inhibitor, partial curve]. For Cc1cc(N/N=C\c2ccccc2)nc(-c2ccccc2O)n1, the Potency was inconclusive: 13 µM [inhibitor, partial curve, poor fit]. For O=c1oc(-c2ccccc2NS(=O)(=O)c2ccc3ccccc3c2)nc2ccccc12, the Potency was “inactive”. With Cc1ccc(NS(=O)(=O)c2cccc3cccnc23)c(Cl)c1 the Potency was inconclusive: 29.1 µM [inhibitor, single point]. In the case of O=S(=O)(Nc1ccccc1)c1ccc(-c2cnc(C3CC3)o2)cc1, the Potency is reported as active: 2.31 µM. For CC(=O)Oc1ccc2c(=O)c(/C=N/c3cc(=O)[nH]c(=S)[nH]3)coc2c1, the Potency was “inactive”. In the case of COc1ccc(-c2nc(-c3ccccn3)no2)cc1, the Potency is reported as inconclusive: 10.3 µM [inhibitor, partial curve]. With CN(CCc1ccc(Cl)c(Cl)c1)C[C@@H](O)COc1ccc(NS(C)(=O)=O)cc1 the Potency was active: 23.7 µM. With COc1ccc(CCNC(=O)COC(=O)c2cc(OC)c(OC)cc2OC)cc1 the Potency was inconclusive: 29.1 µM [inhibitor, single point]. For CN(C)/C=N/C(=S)Nc1ccc(Cl)cc1Cl, the activity change, negative = growth inhibition was inconclusive: -35.4% [inhibitor]. For O=c1[nH]c(CN2CCN(S(=O)(=O)c3ccccc3C(F)(F)F)CC2)nc2sc3c(c12)CCCC3, the Potency was inconclusive: 29.1 µM [inhibitor, single point]. In the case of O=C(CN1C(=O)S/C(=C/c2ccncc2)C1=O)N1CCOCC1, the Potency is reported as inconclusive: 25.9 µM [inhibitor, single point]. With COc1ccc(C2=NN(C(=O)c3cccs3)C(O)(C(F)(F)F)C2)cc1 (stereo not given) the Potency was active: 16.4 µM. In the case of O=C(CC1NC(=O)NC1=O)Nc1ccc(Cl)cc1 (stereo not given), the Potency is reported as “inactive”. With CCC(C)(C)n1nnnc1C(c1cc2cc(C)ccc2[nH]c1=O)N1CCCC1 (stereo not given) the Potency was “inactive”. For O=C(COC(=O)c1cc(S(=O)(=O)N2CCCC2)ccc1O)Nc1ccccc1Br, the Potency was “inactive”. For Cc1cccc(NC(=O)CN2C(=O)CNC2=O)c1, the Potency was “inactive”. In the case of COc1cccc(NC(=O)c2cc(-c3ccco3)nc3ccccc23)c1, the Potency is reported as inconclusive: 25.9 µM [inhibitor, single point]. In the case of COc1ccccc1CNC(=O)c1ccc(S(=O)(=O)N(C)c2ccccc2)cc1, the Potency is reported as inconclusive: 23.1 µM [inhibitor, single point]. For Cc1ccc(S(=O)(=O)N2CCN(C(=O)CSc3nc4ccccc4o3)C2)cc1, the Potency was inconclusive: 18.4 µM [inhibitor, single point]. With COc1ccc(C2=NS(=O)(=O)N(C)C(C(=O)NCc3ccccc3)=C2)cc1OC the Potency was “inactive and inconclusive: 20.6 µM [inhibitor, single point]”. With COc1ccc2[nH]c3c(c2c1)CC(C)NC3=O (stereo not given) the Potency was active: 7.31 µM. In the case of CC(=O)Nc1ccc2c(c1)C(=O)c1ccc(Cl)cc1-2, the Potency is reported as inconclusive: 11.6 µM [inhibitor, single point]. For O=C(Nc1ccccc1)c1ccccc1NC(=O)C(F)(F)F, the Potency was inconclusive: 25.1 µM [inhibitor, single point]. In the case of N#CC(=C=[N-])c1nc2ccccc2nc1-[n+]1cccc(NC(=O)c2ccccc2)c1, the Potency is reported as “inactive”. For O=C(Nc1ccc(Cl)cc1)N[C@H]1CC[C@H](CCn2cc(-c3ccccc3F)nn2)O[C@@H]1CO, the Potency was active: 9.2 µM. With O=C(NCc1cccc(Cl)c1)c1cnn2c1NC(c1ccco1)CC2C(F)(F)F (stereo not given) the Potency was active: 16.4 µM. For CCN(Cc1ccccc1)S(=O)(=O)c1ccc(OC)c2ncccc12, the Potency was inconclusive: 29.1 µM [inhibitor, single point].
